# Values marked as one replicate rest on one cluster of the flow cell; about a third of the high ones do not repeat.
# Test system: ATP
# Experiment: switch fluorescence ratio, 500 uM ATP over buffer (Cy3 cluster intensity, sum of 5 cycles each) (fold (ratio)); higher = stronger signal-on switching upon ATP binding; sequences stand for … in TCGTCGGCAGCGTCAGATGTGTATAAGAGACAGTTTTTTTTTTTTTTTTTTTTTTTTT…TC
# Details: aptamer strand: ATP DNA aptamer (quencher-CACCTGGGGGAGTATTGCGGAGGAAGG + anchor), 100 nM annealed; ATP concentration: 500 uM; one replicate
# In short: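 Clusters with intensities outside 100-1000 RFU were excluded. The remaining Cy3-labelled switching-strand clusters on a modified Illumina MiSeq flow-cell had been annealed to 100 nM quencher-labelled ATP aptamer and imaged in selection buffer, then after 15 min with 500 uM ATP at 22 °C, for five cycles separated by NaOH stripping and re-annealing. The fluorescence ratio, averaged per switch-domain sequence, is each cluster's summed target-cycle Cy3 intensity over its summed buffer-cycle Cy3 intensity.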
# 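Further: ATP exposure 15 min at 22 °C before imaging.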
row,Sequence,switch fluorescence ratio
1,TGATTAACCA,1.02
2,GTTTTGTGCT,0.947
3,GGAATTCGTC,0.972
4,AAAAGGTCTA,0.969
5,ATGGAGCGCG,1
6,TTCCGATATG,1.07
7,CGCACCTAGC,1.19
8,CCAGTGCGGT,1.04
9,TGCTGCTTAC,1.92
10,AGAAGCTTCT,0.985
11,CCTTGACGCA,1.06
12,GCCGTAGCGC,1.09
13,CGTCCCATTG,1.15
14,TAACGACAC,1.66
15,GGCCTTAGCG,1
16,TTCGTAAGGA,0.926
17,AGAAGTTTGA,1.06
18,TTTAGGAGTA,0.959
19,ACAGTTATTT,0.988
20,TGTAGTCGCT,1
21,AAGTGATTTC,0.981
22,CTGGCATCGA,1.04
23,ACTGAGTTTT,1.03
24,TGTATTGGGT,1.11
25,TGGACTATGT,0.974
26,ACATTGGGTG,1.08

row,Sequence,switch fluorescence ratio
1,TTTGCTTTCG,0.996
2,TTTCGGCTT,0.976
3,CATATGAC,1.38
4,GTCCCGGGTA,1.02
5,ATCCGAAGGT,0.999
6,CTGCACGGTC,1.06
7,ATATGGTGT,0.997
8,CACTGGTGTT,1.16
9,GATGTTAAGT,1.03
10,CTCGTTTGAG,0.971
11,GGGTTCGGG,0.998
12,TTTAAAACT,0.941
13,CCGGTGAGGT,1.04
14,CCTTGCAGAG,1.96
15,AGAGATCAAA,1.01
16,GGAGAGGTCG,1.05
17,CTATTGCAC,1.07
18,AATGAAACAC,1.06
19,CTTAAGCGCG,0.925
20,AAAAAAGGAG,0.99
21,GGATCGTTGG,0.989
22,AAAACGTCGC,0.998
23,GATATTGAAA,0.941
24,TCTGGCTAGT,0.976
25,CCAGTGGGGG,1.01
26,GCAACGTACG,1.37

row,Sequence,switch fluorescence ratio
1,TTAGCAGCCG,0.999
2,CGCCACTGGA,1.07
3,AACGGATCAA,0.978
4,CATTCATAAC,1.06
5,ACAAGGATGT,0.985
6,CATCAAGTTT,0.933
7,AGGAAAGCAG,0.992
8,AGACCTCGTT,1.25
9,AAAAGGGCG,1.03
10,TGTTGCGCGC,1.04
11,CCTGTAAAGG,1.02
12,CCTTGCGTCA,1.13
13,TGAGGGTC,1.06
14,GGTAGCTAGA,1.03
15,TTGGAATAAC,1.05
16,CCACGTGAAT,1.1
17,GTCGTTGTGT,1.02
18,AGGCGAAAGC,0.972
19,GGTGCTCCA,1
20,AACCCGGAGC,1.69
21,GGTAAATTTC,1.02
22,CATGGTTATA,1.03
23,CGGCGTAGAC,1.04
24,TGTGGTCCCT,0.972
25,TTGGGAGCTA,1.01
26,TCTTGCTGTT,0.959

row,Sequence,switch fluorescence ratio
1,ACAGTGGCAA,0.947
2,CCGGGCCCCT,1.02
3,TTCTAGAATT,0.978
4,CATTAGACG,0.973
5,CCCGATCAAT,1.72
6,GTTGAGGCAT,0.981
7,CGCCTGCGAG,0.984
8,TGACCGTGGT,1
9,TTCGAATGGA,1.03
10,GCCGTGGTTT,0.982
11,CCTAGTCCAC,1.09
12,CACGTCTTAC,1.34
13,GTTTTCGTCA,1.01
14,TTGGTTAAGG,1.03
15,AAATCGGGCT,1.02
16,TTATGGGAT,0.99
17,ATCGTCAAAC,1.44
18,GCAAGTTAA,1.02
19,ATCAAAGGCC,0.971
20,CTGTAGAAAT,1.39
21,TTATCCGTCC,1.06
22,TATGATTTAG,0.943
23,TATCTAATGG,1.01

# From the supplement of paper PMC10126150
